Molecules are shown by their SMILES. Among all 220,000 compounds or so, about 2,300 (1%) were called active. Not shown: some 6% with an inconclusive outcome. Calls come from the whole dose curve; as a rule, active = well fitted inhibition curve with a large enough effect; inconclusive = small, poorly fitted or top-dose-only effect, or effect the other way; inactive = no such curve, though single readings can be large or run the other way. The list shows a part of the results, in another mix than the full data.
% is set by controls: 0 for no effect and ±100 for the full control effect; potency is the fitted concentration of half-maximal effect.

UniProt Q6W5P4, sequence (Q6W5P4 whole entry, looked up): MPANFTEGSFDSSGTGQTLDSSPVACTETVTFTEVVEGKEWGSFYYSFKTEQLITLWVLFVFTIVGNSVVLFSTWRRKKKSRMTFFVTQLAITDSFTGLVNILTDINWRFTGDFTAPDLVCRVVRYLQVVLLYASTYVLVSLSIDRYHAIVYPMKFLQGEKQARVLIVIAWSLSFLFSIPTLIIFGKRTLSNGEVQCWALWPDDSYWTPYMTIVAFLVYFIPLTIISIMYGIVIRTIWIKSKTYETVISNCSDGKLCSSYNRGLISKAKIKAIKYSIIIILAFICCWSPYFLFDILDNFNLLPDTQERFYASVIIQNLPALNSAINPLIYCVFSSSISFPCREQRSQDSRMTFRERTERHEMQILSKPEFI

The target of this assay is Neuropeptide S receptor (Homo sapiens) (UniProt Q6W5P4). Put plainly: qHTS Assay for Antagonists of the Neuropeptide S Receptor: cAMP Signal Transduction. Note: nearly all actives have a fitted effect of over 50% in size. To be noted: CHO-NPSR cells, cAMP TR-FRET, antagonist mode; series mostly up to 38.3 µM; activity change, negative = inhibition: at the top concentration. An excerpt:
NIH Chemical Genomics Center [NCGC] NIH Molecular Libraries Probe Production centers Network [MLPCN] MLPCN Grant: X01-DA026210-01 Assay Submitter (PI): Heilig, Markus Alexander NCGC Assay Overview: Neuropeptide S receptor (NPSR), previously known as GPR154, is a recently de-orphanized G protein coupled receptor. Its endogenous ligand is the 20 amino acids peptide Neuropeptide S (NPS). […] NPS and its receptor are found in various tissues. Specifically they are highly expressed in brain areas that have been implicated in modulation of arousal, stress and anxiety. Central administration of NPS in mice produces an unusual profile of activity by inducing wakefulness and arousal, while at the same time suppressing anxiety. Therefore, NPSR may represent a novel drug target for the treatment of sleep and anxiety disorders. To identify NPSR antagonists, we developed a cell-based cAMP assay. NPS can stimulate the production of cAMP in Chinese hamster ovary cells stably expressing NPS receptor. This change in intracellular cAMP level can be detected by a homogeneous LANCE cAMP assay based on the TR-FRET (time resolved fluorescence resonance energy transfer) between a europium-labeled cAMP tracer complex and a cAMP-specific antibody labeled with Alexa Fluor 647. The europium-labeled cAMP tracer complex is formed by the tight interaction between Biotin-cAMP (b-cAMP) and streptavidin labeled with Europium-W8044 chelate (Eu-SA). Light pulse at 320 nm excites the europium of the cAMP tracer and the energy emitted is transferred to the Alexa molecule bound to the cAMP antibody, generating a TR-FRET signal at 665 nm. Residual energy from the europium will produce a light at 620 nm. The native unlabeled cAMP from cell lysates competes with the europium-cAMP tracer for antibody binding and reversely reduces the emission signal of Alexa by interrupting FRET between the two labeled molecules. Both emission signals from the FRET donor (620 nm) and the acceptor (665 nm) can be detected by a plate reader in the TRF mode. Expression of result in fluorescence ratio (665 nm/620 nm) helps to normalize differences due to cell density and reagent dispensing. This assay was successfully optimized to a 1536-well plate format.
NCGC Assay Protocol Summary: A Chinese hamster ovary (CHO) cell line stably expressing the NPS receptor (CHO-NPSR) was obtained from Dr. Heilig lab at NIAAA and maintained in F-12 Kaighn's media (Invitrogen, Carlsbad, CA, 21127) supplemented with 10 % FBS, 100 units/ml penicillin, 100 ug/ml streptomycin and 250 ug/ml geneticin at 37C, 5% CO2 in a humidified atmosphere. Before the assay, aliquots of cells were frozen and stored at -135C. The assay was performed in 1536-well format. Data are reported for both the ratio of the two emission wavelengths, and also for the component 'donor' channel, Em2=620. Data were normalized to the controls for basal activity (DMSO only) and 100% inhibition (No NPS control). IC50 values were determined from concentration-response data modeled with the standard Hill equation. NPS 1536-well assay protocol: (1) Fresh or frozen CHO-NPSR cells were suspended in F-12 Kaighn's media supplemented with 10 % FBS, 100 units/ml penicillin and 100 ug/ml streptomycin. Cells were plated at 4 ul/well (1200 cells) to white, tissue culture treated 1536-well plates, and then cultured at 37C, 5 % CO2 for 16 to 30 hours. (2) Add 23 nl/well of compound in DMSO solution. The final titration for each compound was between 0.6 nM and 46 uM. (3) Add 1 ul of stimulation reagent (1X HBSS buffer, 5 mM HEPES, 0.1% BSA, 500 uM RO-201724 (Sigma-Aldrich, B8279), 1.5% Alexa 647-labeled anti-cAMP antibody (from Perkin Elmer), 100 nM NPS) (4) Incubation at 37C, 5 % CO2 for 60 min. (5) Add 1 ul/well detection reagent. Detection reagent was prepared by adding biotin labeled cAMP (4%), streptavidin labeled with Europium-W8044 chelate (1.33%) and TritonX-100 (1%) to detection buffer. […]
In the case of `CC(=O)n1cc([C@H]2C=C(C(=O)N3CCN(Cc4ccc5c(c4)OCO5)CC3)O[C@@H](OCc3ccc(CO)cc3)C2)c2ccccc21`, the “activity change, negative = inhibition” value was inactive: 53.1%.

In the case of `CC1CC2C3CCC4=CC(=O)C=CC4(C)C3(F)C(O)CC2(C)C1(O)C(=O)CO` (stereo not given), the “activity change, negative = inhibition” value is inactive: 27.7%.

For the compound `O=C(c1cccs1)N1CCc2c([nH]c3ccccc23)C1c1ccc(Cl)cc1` (stereo not given), the Potency was active: 10 µM.

Regarding `CCN1C/C(=C\c2cccc([N+](=O)[O-])c2)C(=O)/C(=C/c2cccc([N+](=O)[O-])c2)C1`, the “activity change, negative = inhibition” value is inactive: -49.7%.

In the case of `O=C(CNC(=O)/C(=C/c1ccccc1)NC(=O)c1ccc(Br)cc1)OCc1ccccc1`, the “activity change, negative = inhibition” value is inactive: 1.43%.

Consider `C[N+](C)(C)CCCCCC[N+](C)(C)C`, for which the “activity change, negative = inhibition” value was inactive: -5.72% [at 46.1 µM].

As for `Cc1oncc1C(=O)Nc1ccc(C(F)(F)F)cc1`, the “activity change, negative = inhibition” value was inactive: 3.6%.

With `CSc1ccc2c(c1)C(N1CCN(C)CC1)Cc1ccccc1S2` (stereo not given), the “activity change, negative = inhibition” value is inactive: 10.2% [at 46.1 µM].

Take `Cc1cc(C(C)(C)C)c(O)c(C)c1CC1=NCCN1`: the “activity change, negative = inhibition” value was inactive: 3.91% [at 46.1 µM].

Turning to `CN(C)CCCN1c2ccccc2Sc2ccccc21`, the “activity change, negative = inhibition” value is inactive: -24.1% [at 46.1 µM].

With `Nc1ccn([C@@H]2O[C@H](CO)[C@@H](O)C2O)c(=O)n1` (stereo not given in full), the “activity change, negative = inhibition” value is inactive: 15.9%.

For the compound `CC[C@H](NC(=O)c1c(C)c(-c2ccccc2)nc2ccccc12)c1ccccc1`, the “activity change, negative = inhibition” value was inactive: -51.5%.

As for `CCCC1O[C@@H]2C[C@H]3[C@@H]4CCC5=CC(=O)C=C[C@]5(C)[C@H]4[C@@H](O)C[C@]3(C)[C@]2(C(=O)CO)O1` (stereo not given in full), the “activity change, negative = inhibition” value is inactive: -22.7%.

`CC(C)c1ccc(-c2c(C#N)c(N)nc(SCC(=O)N3CCCCC3)c2C#N)cc1`: the Potency is active: 10 µM.

In the case of `CCO[C@H]1OC(C(=O)N2CCN(Cc3ccc4c(c3)OCO4)CC2)=C[C@@H](C2CCCCC2)[C@@H]1CCCO`, the “activity change, negative = inhibition” value is inactive: 55.6%.

Turning to `CCCCCC(O)c1cccc(OCc2ccc3ccccc3n2)c1` (stereo not given), the “activity change, negative = inhibition” value was inactive: -34.9%.

Consider `CCCCNc1cc(C(=O)O)cc(S(N)(=O)=O)c1Oc1ccccc1`, for which the “activity change, negative = inhibition” value was inactive: -53.6%.

On to `CCN1/C(=C\c2ccc3cc(C)ccc3[n+]2CC)Sc2cc(C)c(C)cc21`, for which the “activity change, negative = inhibition” value was inactive: -25.2%.

Turning to `NC(=O)OCC(COC(N)=O)c1ccccc1`, the “activity change, negative = inhibition” value is inactive: -56.6%.

On to `C#Cc1ccc([C@H]2C=C(C(=O)N3CCN(Cc4ccc5c(c4)OCO5)CC3)O[C@@H](OCC)[C@@H]2CCCO)cc1`, for which the “activity change, negative = inhibition” value is inactive: 59.4%.

As to `CC(C)C[C@H](NC(=O)c1[nH]cnc1C(=O)N[C@H](C)c1ccccc1)C(=O)OCc1ccccc1`, the “activity change, negative = inhibition” value was inactive: 54.2%.

Take `CC(C)OC(=O)C(C)(C)Oc1ccc(C(=O)c2ccc(Cl)cc2)cc1`: the “activity change, negative = inhibition” value was inactive: -43.5%.

In the case of `O=C(NCc1nc2ccccc2[nH]1)C1=C[C@@H](c2ccc(Br)cc2)C[C@@H](OCc2ccc(CO)cc2)O1`, the “activity change, negative = inhibition” value was inactive: 35.7%.

`COc1ccc(Cl)cc1-c1n[nH]c(=S)o1`: the Potency is active: 6.31 µM.

With `C#CCNC(=O)C1=C[C@@H](c2csc3ccccc23)C[C@@H](OCc2ccc(CO)cc2)O1`, the “activity change, negative = inhibition” value is inactive: 51.7%.

`CCOC(=O)c1cc2c(=O)n3ccccc3nc2n(CC(C)C)c1=NC(=O)c1c(-c2c(F)cccc2Cl)noc1C`: the Potency was active: 3.98 µM.

`COC(=O)C1=C(C)NC(C)=C([N+](=O)[O-])C1c1ccccc1C(F)(F)F` (stereo not given): the “activity change, negative = inhibition” value was inactive: -24.4%.

With `Oc1cc(O)c2c(c1)O[C@H](c1ccc(O)c(O)c1)[C@@H](O)C2`, the “activity change, negative = inhibition” value is inactive: 5.96%.

On to `CCN(CC)CCOC(=O)C1(C2CCCCC2)CCCCC1`, for which the “activity change, negative = inhibition” value is inactive: -7.48%.

For the compound `CCOC(=O)/C(=C\c1ccc([N+](=O)[O-])cc1)C(=O)c1cc(C(C)=O)c(Nc2ccccc2)s1`, the Potency was active: 7.94 µM.

Turning to `CN(C)CCCN1c2ccccc2Sc2ccc(C(F)(F)F)cc21`, the “activity change, negative = inhibition” value was inactive: -0.483% [at 46.1 µM].

As to `CCSc1nc2ccccc2n1C(=O)/C=C/c1ccc(OC)c(OC)c1`, the “activity change, negative = inhibition” value was inactive: -59%.

As to `O=C(C1=C[C@@H](c2coc3ccccc3c2=O)C[C@@H](OCCCCO)O1)N1CCN(Cc2ccccc2)CC1`, the “activity change, negative = inhibition” value was inactive: 29.3%.

On to `CN1CCN(CC/C=C2/c3ccccc3Sc3ccc(S(=O)(=O)N(C)C)cc32)CC1`, for which the “activity change, negative = inhibition” value was inactive: -54.7%.

Consider `O=S(=O)(c1ccc2c(c1)C(=NO)c1cc(S(=O)(=O)N3CCCCC3)ccc1-2)N1CCCCC1`, for which the Potency was active: 2 µM.

Take `COc1ccc(/C(O)=C2/C(=O)C(=O)N(c3nc(C)c(C)s3)C2c2ccco2)cc1` (stereo not given): the Potency was active: 10 µM.

For the compound `C[C@](N)(Cc1ccc(O)cc1)C(=O)O`, the “activity change, negative = inhibition” value is inactive: -4.42% [at 46.1 µM].

Take `COc1ccc(C2Nc3ccc4ccccc4c3-c3c2c(=O)oc2ccccc32)cc1` (stereo not given): the Potency was active: 7.94 µM.

In the case of `c1ccc(-c2nnc3sc(-c4csc5c4CCCC5)nn23)cc1`, the Potency is active: 10 µM.

`CC(/C=N/NC(=O)c1cccs1)=C\c1ccccc1`: the “activity change, negative = inhibition” value is inactive: -23%.
